# The other results are listed elsewhere or left out.
# B1: DC-ASGPR L+GEE (Homo sapiens) (protein)
# chain: MTRTYENFQYLENKVKVQGFKNGPLPLQSLLQRLRSGPCHLLLSLGLGLLLLVIICVVGFQNSKFQRDLVTLRTDFSNFTSNTVAEIQALTSQGSSLEETIASLKAEVEGFKQERQAGVSELQEHTTQKAHLGHCPHCPSVCVPVHSEMLLRVQQLVQDLKKLTCQVATLNNNGEEASTEGTCCPVNWVEHQDSCYWFSHSGMSWAEAEKYCQLKNAHLVVINSREEQNFVQKYLGSAYTWMGLSDPEGAWKWVDGTDYATGFQNWKPGQPDDWQGHGLGGGEDCAHFHPDGRWNDDVCQRPYHWVCEAGLGQTSQESH
# Experiments:
# Experiment in all cases: glycan array binding signal (z-score within array); higher = stronger binding
# Conditions in all cases: glycan notation: IUPAC condensed, linker removed
# GalNAc3S(b1-4)GlcNAc3S = molecular target: GalNAc3S(b1-4)GlcNAc3S
# In short: (§1)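 Arrays were curated from the Consortium for Functional Glycomics database, 3228 in total, and kept only where the protein sequence was available. Binding is expressed as a within-array Z-score. This score was averaged across arrays of the same protein sequence at different concentrations or buffers and across linkers, and negative values can be read as non-binding.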
# [1] = molecular target: GalNAc3S(b1-4)[Fuc(a1-3)]GlcNAc
# In short: as §1
# GalNAc4S6S(b1-4)GlcNAc = molecular target: GalNAc4S6S(b1-4)GlcNAc
# In short: as §1
# GalNAc6S(b1-4)GlcNAc = molecular target: GalNAc6S(b1-4)GlcNAc
# In short: as §1
# Glc(a1-4)Glc = molecular target: Glc(a1-4)Glc
# In short: as §1
# [2] = molecular target: Glc(a1-4)Glc(a1-4)Glc(a1-4)Glc
# In short: as §1
# Glc(a1-6)Glc(a1-6)Glc = molecular target: Glc(a1-6)Glc(a1-6)Glc
# In short: as §1
# [3] = molecular target: Glc(a1-6)Glc(a1-6)Glc(a1-6)Glc
# In short: as §1
# Glc(b1-4)Glc = molecular target: Glc(b1-4)Glc
# In short: as §1
# Glc(b1-6)Glc = molecular target: Glc(b1-6)Glc
# In short: as §1
# GlcA(b1-3)Gal = molecular target: GlcA(b1-3)Gal
# In short: as §1
# GlcA(b1-3)GlcNAc = molecular target: GlcA(b1-3)GlcNAc
# In short: as §1
# GlcA(b1-6)Gal = molecular target: GlcA(b1-6)Gal
# In short: as §1
# [4] = molecular target: GlcA3S(b1-3)Gal(b1-4)GlcNAc(b1-2)Man
# In short: as §1
# [5] = molecular target: GlcA3S(b1-3)Gal(b1-4)GlcNAc(b1-3)Gal(b1-4)Glc
# In short: as §1
# [6] = molecular target: GlcNAc(a1-3)Gal(b1-4)GlcNAc
# In short: as §1
# [7] = molecular target: GlcNAc(a1-4)Gal(b1-3)GlcNAc
# In short: as §1
# [8] = molecular target: GlcNAc(a1-4)Gal(b1-4)GalNAc
# In short: as §1
# [9] = molecular target: GlcNAc(a1-4)Gal(b1-4)GlcNAc
# In short: as §1
# [10] = molecular target: GlcNAc(a1-4)Gal(b1-4)GlcNAc(b1-3)Gal(b1-4)Glc
# In short: as §1
# [11] = molecular target: GlcNAc(a1-4)Gal(b1-4)GlcNAc(b1-3)Gal(b1-4)GlcNAc
# In short: as §1
# [12] = molecular target: GlcNAc(a1-4)Gal(b1-4)GlcNAc(b1-3)Gal(b1-4)GlcNAc(b1-3)Gal(b1-4)GlcNAc
# In short: as §1
# [13] = molecular target: GlcNAc(a1-4)Gal(b1-4)GlcNAc(b1-3)Gal(b1-4)[Fuc(a1-3)]GlcNAc(b1-3)Gal(b1-4)[Fuc(a1-3)]GlcNAc
# In short: as §1
# [14] = molecular target: GlcNAc(a1-6)Gal(b1-4)GlcNAc
# In short: as §1
# [15] = molecular target: GlcNAc(b1-2)Gal(b1-3)GalNAc
# In short: as §1
# [16] = molecular target: GlcNAc(b1-2)Man(a1-3)[GlcNAc(b1-2)Man(a1-6)]Man(b1-4)GlcNAc(b1-4)GlcNAc
# In short: as §1
# [17] = molecular target: GlcNAc(b1-2)Man(a1-3)[GlcNAc(b1-2)Man(a1-6)]Man(b1-4)GlcNAc(b1-4)[Fuc(a1-6)]GlcNAc
# In short: as §1
# [18] = molecular target: GlcNAc(b1-2)Man(a1-3)[GlcNAc(b1-4)][GlcNAc(b1-2)Man(a1-6)]Man(b1-4)GlcNAc(b1-4)GlcNAc
# In short: as §1
# [19] = molecular target: GlcNAc(b1-2)Man(a1-3)[GlcNAc(b1-4)][GlcNAc(b1-2)Man(a1-6)]Man(b1-4)GlcNAc(b1-4)[Fuc(a1-6)]GlcNAc
# In short: as §1
# [20] = molecular target: GlcNAc(b1-2)[GlcNAc(b1-4)]Man(a1-3)[GlcNAc(b1-2)Man(a1-6)]Man(b1-4)GlcNAc(b1-4)GlcNAc
# In short: as §1
# [21] = molecular target: GlcNAc(b1-2)[GlcNAc(b1-4)]Man(a1-3)[GlcNAc(b1-4)][GlcNAc(b1-2)Man(a1-6)]Man(b1-4)GlcNAc(b1-4)GlcNAc
# In short: as §1
# [22] = molecular target: GlcNAc(b1-2)[GlcNAc(b1-4)]Man(a1-3)[GlcNAc(b1-4)][GlcNAc(b1-2)[GlcNAc(b1-6)]Man(a1-6)]Man(b1-4)GlcNAc(b1-4)GlcNAc
# In short: as §1
# [23] = molecular target: GlcNAc(b1-2)[GlcNAc(b1-4)]Man(a1-3)[GlcNAc(b1-4)][GlcNAc(b1-2)[GlcNAc(b1-6)]Man(a1-6)]Man(b1-4)GlcNAc(b1-4)[Fuc(a1-6)]GlcNAc
# In short: as §1
# [24] = molecular target: GlcNAc(b1-2)[GlcNAc(b1-6)]Man(a1-6)[GlcNAc(b1-2)Man(a1-3)]Man(b1-4)GlcNAc(b1-4)GlcNAc
# In short: as §1
# [25] = molecular target: GlcNAc(b1-2)[GlcNAc(b1-6)]Man(a1-6)[GlcNAc(b1-2)Man(a1-3)]Man(b1-4)GlcNAc(b1-4)[Fuc(a1-6)]GlcNAc
# In short: as §1
# [26] = molecular target: GlcNAc(b1-2)[GlcNAc(b1-6)]Man(a1-6)[GlcNAc(b1-4)][GlcNAc(b1-2)Man(a1-3)]Man(b1-4)GlcNAc(b1-4)GlcNAc
# In short: as §1
# GlcNAc(b1-3)Fuc = molecular target: GlcNAc(b1-3)Fuc
# In short: as §1
# GlcNAc(b1-3)Gal = molecular target: GlcNAc(b1-3)Gal
# In short: as §1
binder,measurement,setting,value
B1,glycan array binding signal (z-score),GalNAc3S(b1-4)GlcNAc3S,0.245
same,glycan array binding signal (z-score),[1],-0.453
same,glycan array binding signal (z-score),GalNAc4S6S(b1-4)GlcNAc,0.206
same,glycan array binding signal (z-score),GalNAc6S(b1-4)GlcNAc,1.11
same,glycan array binding signal (z-score),Glc(a1-4)Glc,-0.196
same,glycan array binding signal (z-score),[2],-0.607
same,glycan array binding signal (z-score),Glc(a1-6)Glc(a1-6)Glc,-0.353
same,glycan array binding signal (z-score),[3],-0.243
same,glycan array binding signal (z-score),Glc(b1-4)Glc,-0.46
same,glycan array binding signal (z-score),Glc(b1-6)Glc,-0.795
same,glycan array binding signal (z-score),GlcA(b1-3)Gal,-0.508
same,glycan array binding signal (z-score),GlcA(b1-3)GlcNAc,-0.546
same,glycan array binding signal (z-score),GlcA(b1-6)Gal,-0.198
same,glycan array binding signal (z-score),[4],0.035
same,glycan array binding signal (z-score),[5],-0.149
same,glycan array binding signal (z-score),[6],0.302
same,glycan array binding signal (z-score),[7],-0.553
same,glycan array binding signal (z-score),[8],-0.609
same,glycan array binding signal (z-score),[9],-0.367
same,glycan array binding signal (z-score),[10],-0.225
same,glycan array binding signal (z-score),[11],0.092
same,glycan array binding signal (z-score),[12],-0.224
same,glycan array binding signal (z-score),[13],-0.234
same,glycan array binding signal (z-score),[14],-0.323
same,glycan array binding signal (z-score),[15],0.079
same,glycan array binding signal (z-score),[16],-0.307
same,glycan array binding signal (z-score),[17],-0.25
same,glycan array binding signal (z-score),[18],-0.461
same,glycan array binding signal (z-score),[19],-0.392
same,glycan array binding signal (z-score),[20],-0.298
same,glycan array binding signal (z-score),[21],-0.37
same,glycan array binding signal (z-score),[22],-0.359
same,glycan array binding signal (z-score),[23],0.115
same,glycan array binding signal (z-score),[24],-0.312
same,glycan array binding signal (z-score),[25],-0.268
same,glycan array binding signal (z-score),[26],-0.217
same,glycan array binding signal (z-score),GlcNAc(b1-3)Fuc,-0.669
same,glycan array binding signal (z-score),GlcNAc(b1-3)Gal,-0.121

# From the supplement of paper PMC8728848
